Here are results for 70 compounds from PubChem BioAssay AID488969 (Vanderbilt High Throughput Screening Facility, 2010).

In all, about 110,000 compounds were measured (“z-score”: median about -0.1, highest 2% from about 2 on). The list shows a part of the results. Active and inactive are the calls of the source.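 The calls were made as follows: active = z-score in the third read window above 3 or below -3; inactive = the rest.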

In the assay the target is Metabotropic glutamate receptor 8 (Rattus norvegicus) (UniProt P70579). The assay is described as follows: rat mGluR8 modulators via GIRK flux, primary screen, cell-based, thallium flux, HTS (AID 488969). The conditions noted are these: HEK293 rat mGluR8, GIRK (G protein-gated inwardly rectifying potassium channel) thallium flux, FluoZin2; at 10 µM; stronger effect = higher value; submaximal glutamate (EC20) added with thallium.
Sequence of UniProt P70579 (P70579 whole entry, looked up): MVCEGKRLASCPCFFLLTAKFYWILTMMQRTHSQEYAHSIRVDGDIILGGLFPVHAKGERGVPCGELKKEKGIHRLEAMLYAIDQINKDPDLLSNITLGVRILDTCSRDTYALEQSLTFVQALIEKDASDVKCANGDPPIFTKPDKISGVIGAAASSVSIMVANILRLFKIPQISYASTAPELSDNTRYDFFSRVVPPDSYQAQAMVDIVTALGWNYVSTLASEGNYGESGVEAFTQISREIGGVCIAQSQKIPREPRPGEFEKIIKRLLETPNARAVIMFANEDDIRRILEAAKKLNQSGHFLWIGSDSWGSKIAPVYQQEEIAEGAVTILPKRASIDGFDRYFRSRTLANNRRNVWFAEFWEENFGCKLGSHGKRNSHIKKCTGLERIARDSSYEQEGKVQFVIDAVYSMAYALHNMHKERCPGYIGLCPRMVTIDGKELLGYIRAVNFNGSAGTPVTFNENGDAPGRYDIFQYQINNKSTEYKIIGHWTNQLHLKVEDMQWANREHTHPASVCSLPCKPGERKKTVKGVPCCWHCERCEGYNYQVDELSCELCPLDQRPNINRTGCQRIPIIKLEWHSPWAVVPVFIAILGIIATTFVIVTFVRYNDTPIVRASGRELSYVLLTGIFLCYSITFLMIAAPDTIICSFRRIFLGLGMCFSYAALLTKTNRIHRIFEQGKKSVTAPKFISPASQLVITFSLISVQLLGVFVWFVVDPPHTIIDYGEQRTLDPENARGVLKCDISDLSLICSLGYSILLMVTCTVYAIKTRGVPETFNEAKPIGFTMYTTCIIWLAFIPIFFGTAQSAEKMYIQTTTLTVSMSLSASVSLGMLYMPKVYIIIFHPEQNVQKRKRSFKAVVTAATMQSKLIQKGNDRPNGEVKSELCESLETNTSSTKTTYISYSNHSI
Take `Cc1cccc(NS(=O)(=O)c2ccc(C)c(C(=O)OCC(=O)Nc3cc(C)on3)c2)c1`: the z-score was -0.0733. The result for `C=CCN1C(=O)CS/C1=N/c1nccs1` reads -0.225; that for `CCOC(=O)c1ccc(NC(=O)CSc2nc(NC(=O)c3ccccc3)c3c(C)c(C)oc3n2)cc1`, 0.297. The result for `CCS(=O)(=O)NCCc1cc2cc(C)c(C)cc2[nH]c1=O` reads -0.163; that for `CCCC1=C(C(=O)OCC)C(c2ccc(F)cc2)n2ncnc2N1` (stereo not given), active: -3.56; that for `CC(=O)N1CCN(CC(=O)Nc2ccc(Cl)c(S(=O)(=O)N(C)C)c2)CC1`, -0.0302.

In the case of `COC(=O)/C(=C\c1ccc2c(c1)c1ccccc1n2C)NC(=O)c1ccccc1`, the z-score was -0.351. On to `O=[N+]([O-])c1cccc(-c2nnc3c4ccccc4c4ccccc4n23)c1`, for which the z-score stood at 0.134. The result for `Cc1ccc(NC(=O)c2ccc(OC(=O)c3ccco3)cc2)cc1` reads -0.336; that for `Cc1ccc(NC(=S)N2CCN(Cc3ccccc3)CC2)c(C)c1`, -0.121; that for `Cc1csc(NC(=O)C2CCCN(S(=O)(=O)c3ccc(Br)s3)C2)n1` (stereo not given), -1.92. Take `CN(C)CCCCOc1cccc(Br)c1`: the z-score is 0.476. The result for `CC(C)NC(=O)NC(=O)COc1cccc2c1OC(C)(C)C2` reads -0.0245. As for `O=C(Nc1cnc2ccccc2c1)C1COc2ccccc2O1` (stereo not given), the z-score is 0.17. The result for `Nc1ccc(S(=O)(=O)NNC(=O)C(=O)NNc2ccccc2)cc1` reads -0.874; that for `CCOC(=O)N1CCN(C(=O)c2ccc3c(=O)n(CCc4ccccc4)c(=O)[nH]c3c2)CC1`, -0.463. For `CC1(C(=O)NC2CCCCCCC2)CCC(=O)N1Cc1ccco1` (stereo not given), the z-score is -0.119. The result for `CCCCS/C(=C(/C#N)C(N)=O)c1cc2c([nH]1)CCCC2` reads -1.6. As to `CCN(CC)CCNC(=O)C1CCN(S(=O)(=O)N2CCCCC2)CC1`, the z-score is -0.146. `Cc1ccc(C2=[N+]([O-])C(C)N(O)C2(C)C)o1` (stereo not given): the z-score was 0.109. The compound `CCc1c(C)sc(NC(=O)c2cc(-c3ccc(OC)c(OC)c3)on2)c1C#N` had a z-score of 0.139. The result for `COc1cc(S(=O)(=O)NC(C)C)ccc1Cl` reads -0.326; that for `Cc1ccccc1NC(=O)CSc1nc(N)c(C#N)cc1C#N`, -0.492. The result for `COc1ccc(CN(CCC(c2ccccc2)c2ccco2)C(=O)c2ccco2)cc1` (stereo not given) reads -0.324; that for `Cc1cc2ncn(-c3ncnc4scc(-c5ccccc5)c34)c2cc1C`, -0.722; that for `CCOC(=O)c1c[nH]c2c3c(ccc2c1=O)CCCC3`, -0.00312. The result for `CCC(=O)N(Cc1ccccc1)c1ccccn1` reads -0.1; that for `O=[N+]([O-])c1ccc(N/N=C2/CCCCC2c2ccccn2)c([N+](=O)[O-])c1` (stereo not given), -0.955. Turning to `Clc1cccc(Cl)c1CSc1cc2c(nn1)-c1ccccc1CC2`, the z-score is -0.379. The result for `Cc1ccccc1OCC(=O)Nc1ccc(S(=O)(=O)Nc2ccccn2)cc1` reads 0.014; that for `COc1ccc(-c2cc(C(=O)Nc3c(C)nn(Cc4ccccc4)c3C)no2)cc1`, -0.433. Take `CCOc1c(N2CCCCC2)c(=O)c1=O`: the z-score is -0.206. The result for `COc1cc(OC)cc(C(=O)N[C@H](C(=O)OCC(=O)Nc2ccc(C(C)C)cc2)C(C)C)c1` reads -0.245; that for `Cc1onc(-c2ccccc2Cl)c1C(=O)Nc1ccc2c(c1)OCO2`, 0.151; that for `CN(C)c1nc(OCC(=O)NC(C)(C)C)nc(N(C)C)n1`, -0.142. On to `O=[N+]([O-])/C(=C\Nc1ccccc1)S(=O)(=O)c1ccccc1`, for which the z-score is -0.218. The result for `CCCCOC(=O)c1ccc(NC(=S)NC(=O)c2c(Cl)cnn2C)cc1` reads active: 11.2; that for `Cc1ccc(Cn2ncc3c(N4CCN(c5ccccc5C)CC4)ncnc32)cc1`, 0.00301. In the case of `O=C(NCC1COc2ccccc2O1)c1ccccc1` (stereo not given), the z-score came to 0.298.

Consider `CSc1nc(NCc2ccco2)c2c3c(sc2n1)CN(C)CC3`, for which the z-score is -0.494. The result for `COc1cccc(C(=O)NNC(=S)NC2CCCCC2)c1` reads -0.369; that for `COc1ccc(C(=O)N(CN2CCCC2=O)c2ccc(C)cc2)cc1`, 0.00848; that for `Cc1ccc(-c2nc3ccccc3o2)cc1NC(=O)c1ccc2c(c1)OCO2`, -0.198. The result for `NC(=O)CSCc1nc2ccccc2s1` reads -0.12; that for `Clc1ccccc1/C=N/NC1=Nc2cccc3cccc1c23`, -0.327.

As to `Cc1cc(C)c(NC(=O)/C=C\C(=O)O)c([N+](=O)[O-])c1`, the z-score is -0.0766. The result for `CCOC(=O)c1sc(NC(=O)c2cc(-c3ccc(C)cc3)nc3ccccc23)c(C#N)c1C` reads -0.0507; that for `COc1ccc(CCNC(=O)CCn2c(=O)[nH]c3cc(OC)c(OC)cc3c2=O)cc1OC`, 0.0203. The result for `COc1cc(OC)cc(C(=O)NC(=S)Nc2cccnc2)c1` reads 0.0131; that for `CCOC(=O)NC(NC(=S)Nc1ccccc1[N+](=O)[O-])C(Cl)(Cl)Cl` (stereo not given), -0.166. The result for `COc1cccc(NC(=O)COC(=O)c2ccc(S(=O)(=O)NCc3ccco3)cc2)c1` reads 0.212. On to `Cc1nn(C(=O)c2ccco2)c(C)c1Sc1ccc(Cl)cc1`, for which the z-score is -0.125. `N#Cc1nc(-c2ccco2)oc1NCc1ccc(F)cc1` registered a z-score of 0.442.

As for `COCCNC(=O)C(C)N(c1ccc(OC)cc1)S(C)(=O)=O` (stereo not given), the z-score is -0.193. The result for `Cc1cccc(N(CC(=O)N2CCCC2)S(=O)(=O)c2ccccc2)c1` reads -0.418. The result for `Cc1ccc(Sc2ccc(C(=O)NC(C)C)cc2[N+](=O)[O-])cc1` reads -0.167; that for `COc1ccc(Cn2cccc(NC(=O)Nc3cccc(C#N)c3)c2=O)cc1`, 0.0526; that for `Cc1ccc(C(=O)N/C(=C\C=C\c2ccccc2)C(=O)NCc2ccco2)cc1`, -0.239.

Take `CNC(=O)CN(C)S(=O)(=O)c1ccc(OC)c(Cl)c1`: the z-score was determined as 0.24.

With `COc1ccc(Cl)cc1C(=O)NNC1CC(=O)N(Cc2ccc(Cl)cc2)C1=O` (stereo not given), the z-score is -0.185. In the case of `CCOC(=O)C1CCN(c2nc3ccccc3nc2C(C#N)C(=O)OC(C)C)CC1` (stereo not given), the z-score worked out at 0.135. The result for `Cc1ccc(S(=O)(=O)/C=C2\NC(=O)CS2)cc1` reads 0.0347; that for `NC(=O)CSc1ccc(Br)cc1`, -0.25. The result for `COC(=O)Nc1ccc(S(=O)(=O)N2CCN(C)CC2)cc1` reads -0.00413.

For the compound `O=C(Nc1ccc2c(c1)OCO2)c1sc2cc(Cl)ccc2c1Cl`, the z-score is -0.166. The result for `CCCN(CCC)S(=O)(=O)c1ccc(C(=O)N2CCCc3ccccc32)cc1` reads -0.607; that for `CS(=O)(=O)N(CC(=O)NCc1ccccn1)Cc1ccc(Cl)cc1`, 0.0464. The result for `Cc1ccc(-c2cc(C(=O)Nc3sc4c(c3C(=O)NCc3ccco3)CCC4)[nH]n2)c(O)c1` reads 0.202; that for `O=C(CNC(=O)c1ccc(Cl)cc1)NCC(F)(F)F`, -0.0227.

Turning to `O=C(O)CCCC(=O)NS(=O)(=O)c1ccc(Cl)cc1`, the z-score was -0.379.
